Reference: PubChem BioAssay AID588591 (National Center for Advancing Translational Sciences (NCATS), 2011)
Where “and” joins values, the source holds several entries; their conditions need not be identical. Equal values may be shown once. Screen size: about 390,000 compounds; about 4,700 (1.2%) were called active. The shares of active, inactive and inconclusive entries below differ from those in the screen. Calls come from the whole dose curve; as a rule, active = well fitted inhibition curve with a large enough effect; inconclusive = small, poorly fitted or top-dose-only effect, or another doubt; inactive = no such curve, though single readings can be large or run the other way. Potencies of inconclusive entries are doubtful fits and often do not repeat.

What follows are molecules tested against DNA polymerase eta (Homo sapiens) (UniProt Q9Y253) (assay: qHTS for Inhibitors of Polymerase Eta). Conditions: recombinant Pol eta, fluorescent DNA replication assay; series mostly up to 114 µM; activity change, negative = inhibition: at the top concentration.
Method in brief: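 Fluorescent replication assay: 50 nM final substrate added after a 15 min room-temperature compound preincubation with 10 nM enzyme. Signal taken at 0 min and again at 10 min.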
% is set by controls: 0 for no effect and ±100 for the full control effect; potency is the fitted concentration of half-maximal effect; tags give direction and shape of the fitted curve.

UniProt Q9Y253, sequence (Q9Y253 whole entry, looked up): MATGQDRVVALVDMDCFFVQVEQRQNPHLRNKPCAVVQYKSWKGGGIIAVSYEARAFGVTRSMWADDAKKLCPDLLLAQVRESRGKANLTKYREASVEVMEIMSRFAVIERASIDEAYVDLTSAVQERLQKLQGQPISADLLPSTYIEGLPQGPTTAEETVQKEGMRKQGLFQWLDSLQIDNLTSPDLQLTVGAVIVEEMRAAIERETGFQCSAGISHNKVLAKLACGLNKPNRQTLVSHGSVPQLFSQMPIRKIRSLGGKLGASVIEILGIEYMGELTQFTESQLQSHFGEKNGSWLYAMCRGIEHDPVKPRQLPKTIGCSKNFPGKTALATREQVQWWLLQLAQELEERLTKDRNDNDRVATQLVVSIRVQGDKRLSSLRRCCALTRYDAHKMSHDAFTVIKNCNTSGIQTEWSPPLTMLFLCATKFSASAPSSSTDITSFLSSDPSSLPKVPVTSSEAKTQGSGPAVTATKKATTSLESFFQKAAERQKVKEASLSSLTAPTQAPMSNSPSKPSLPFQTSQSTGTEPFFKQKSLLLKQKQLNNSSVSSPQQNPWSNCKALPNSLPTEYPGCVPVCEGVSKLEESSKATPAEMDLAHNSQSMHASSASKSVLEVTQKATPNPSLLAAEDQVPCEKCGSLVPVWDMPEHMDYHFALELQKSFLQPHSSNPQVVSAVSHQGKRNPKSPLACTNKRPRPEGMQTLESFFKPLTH

Structure (SMILES)	Potency	activity change, negative = inhibition
COc1ccccc1C(=O)NC(=O)COC(=O)c1ccc(C)o1	inconclusive: 17.8 µM [inhibitor, full curve, poor fit]	–
Cc1cc(SCc2ccc(F)cc2)nc(=O)[nH]1	inconclusive: 35.5 µM [inhibitor, single point]	–
Cc1nc(SCc2ccc(OCCC(C)C)cc2)n[nH]1	inconclusive: 89.1 µM [inhibitor, partial curve, poor fit]	–
CCc1ccc(N2C(=O)CN(Cc3sccc3C)C2=S)cc1	inconclusive: 89.1 µM [inhibitor, partial curve, poor fit]	–
COc1cccc(NC(=O)/C(C#N)=C\c2cn(Cc3ccc(C)cc3)c3ccccc23)c1	–	inactive: -12.9%
COc1ccc(-n2c(SCC(=O)N/N=C(\C)c3cccnc3)nc3ccccc3c2=O)cc1	inconclusive: 14.1 µM [inhibitor, full curve, poor fit]	–
O=C(c1cnccn1)N1CCc2ccccc21	inconclusive: 11.2 µM [inhibitor, partial curve, poor fit]	–
CCn1c(C)cc(C(=O)CSc2nnnn2C2CCCC2)c1C	inconclusive: 39.8 µM [inhibitor, single point]	–
Cc1nn(Cc2c(Cl)cccc2Cl)c(C)c1C(=O)NCc1ccc(C)n1C	inconclusive: 15.8 µM [inhibitor, partial curve, poor fit]	–
CC1=C(c2ccc(C)c(C)c2)S(=O)(=O)N=C1N1CCC(C(=O)NCCc2ccc(Cl)cc2)CC1	–	inactive: -5.71%
Cc1ccc(C(=O)Nc2ncc([N+](=O)[O-])s2)cc1	inconclusive: 56.2 µM [inhibitor, partial curve, poor fit]	–
COc1ccc(/C=N/NC(=O)c2cc(-c3ccc4c(c3)OCO4)n[nH]2)cc1OC	inconclusive: 3.16 µM [inhibitor, full curve]	–
Cc1ccc(C)c(SCC(=O)OCC(=O)Nc2ncc(C(F)(F)F)cc2Cl)c1	–	inactive: -21.2%
O=C(Oc1cccc2c(O)cccc12)c1ccco1	–	inactive: -5.7%
COc1cccc(NC(=O)c2oc3ccccc3c2NC(=O)c2ccc(C(F)(F)F)cc2)c1	–	inactive: 2.33%
COc1cc(/C=C(\C#N)c2nc3ccc(C)cc3[nH]2)c([N+](=O)[O-])cc1OC	inconclusive: 31.6 µM [inhibitor, single point]	–
Cc1ccccc1C(=O)c1cccn1CC(=O)O	inconclusive: 20 µM [inhibitor, partial curve, poor fit]	–
COCCCN(C(=O)c1cc(-c2ccco2)nc2ccccc12)c1c(N)n(Cc2ccccc2)c(=O)[nH]c1=O	active: 25.1 µM	–
O=C(O)c1ccccc1NC(c1ccccc1)c1ccc2cccnc2c1O (stereo not given)	inconclusive: 31.6 µM [inhibitor, partial curve, poor fit]	–
COc1cccc(OCCCn2cc(/C=C3/C(=N)N4C=C(C)SC4=NC3=O)c3ccccc32)c1	–	inactive: -21.3%
C=C(CO)C1Cc2cc(C(C)=O)ccc2O1 (stereo not given)	active: 20 µM	–
CCc1nc2nc(C)cc(Nc3cc(Cl)ccc3C)n2n1	–	inactive: 7.47%

Structure (SMILES)	Potency	activity change, negative = inhibition
CCOC(=O)N1CCN(S(=O)(=O)c2ccc(C(=O)Nc3nc4c(s3)CC(C)CC4)cc2)CC1 (stereo not given)	inconclusive: 2.51 µM [inhibitor, full curve]	–
CCCCCCCC/C=C\CCCCCCCC(=O)NCCc1ccc(O)c(O)c1	inactive and inconclusive: 20 µM [inhibitor, single point]	–
N#Cc1c(NC(=O)C2CC=CCC2C(=O)O)sc2c1CCCCCC2 (stereo not given)	inconclusive: 22.4 µM [inhibitor, single point]	–
CC1CCN(S(=O)(=O)c2ccc3ccccc3c2)CC1	–	inactive: -4.13%
CCOC(=O)c1ccc(NC(=O)C2CC(=O)NC(=Nc3ccc(C)c(C)c3)S2)cc1 (stereo not given)	inconclusive: 70.8 µM [inhibitor, partial curve]	–
Cc1cccc(Nc2sc(C(=O)c3cc4cc(Cl)ccc4o3)c(N)c2C#N)c1	inconclusive: 3.98 µM [inhibitor, full curve, poor fit]	–
COCOc1cc(O)c2c(=O)c(OCOC)c(-c3ccc(OCOC)c(OCOC)c3)oc2c1	inconclusive: 17.8 µM [inhibitor, full curve]	–
CCOC(=O)Cc1nnc(NC(=O)c2ccco2)s1	inconclusive: 39.8 µM [inhibitor, partial curve, poor fit]	–
Cc1cc(NCCCN2CCOCC2)n2nc(C)c(-c3ccccc3)c2n1	inconclusive: 28.2 µM [inhibitor, single point]	–
C=CCn1c(SCC(=O)O)nnc1-c1ccc(C(C)(C)C)cc1	inconclusive: 79.4 µM [inhibitor, partial curve, poor fit]	–
O=C(C=P(c1ccccc1)(c1ccccc1)c1ccccc1)c1ccccc1-c1ccccc1C(=O)C=P(c1ccccc1)(c1ccccc1)c1ccccc1	inconclusive: 20 µM [inhibitor, partial curve, poor fit]	–
Cc1c(C(=O)Nc2ccncc2)sc2nc(-c3ccccc3)cn12	inconclusive: 31.6 µM [inhibitor, full curve]	–
CCOc1ccc2oc(C(=O)NNC(=O)c3ccccc3O)c(C)c2c1	active: 79.4 µM	–
CNC(=O)c1cn2c3c(ccc(Cl)c3c1=O)OC(C)C2 (stereo not given)	inconclusive: 44.7 µM [inhibitor, single point]	–
O=C(Nc1nnc(SCCC2OCCO2)s1)C1CC(=O)N(c2ccccc2)C1 (stereo not given)	inconclusive: 31.6 µM [inhibitor, partial curve, poor fit]	–
COc1cccc(-c2c(C(=O)N/N=C/c3ccc(C)s3)nnn2-c2nonc2N)c1	inconclusive: 8.91 µM [inhibitor, partial curve]	–
Cc1ccc(CSC2=Nc3sccc3C3=NC(=O)CN23)cc1	inconclusive: 20 µM [inhibitor, partial curve, poor fit]	–
NC(=O)Nc1ccc(C(=O)OCC(=O)Nc2sccc2C(N)=O)cc1	inconclusive: 15.8 µM [inhibitor, full curve, poor fit]	–
COc1cc(/C=C2/C(=O)NN(c3cccc(F)c3)C2=O)ccc1OC(=O)c1ccco1	inconclusive: 12.6 µM [inhibitor, full curve, poor fit]	–
O=C(COC(=O)c1ccc([N+](=O)[O-])s1)NCCc1ccccc1	inconclusive: 56.2 µM [inhibitor, partial curve, poor fit]	–
CC[n+]1ccc(/C=C/c2ccc(N(C)C)cc2)c2ccccc21	inconclusive: 50.1 µM [inhibitor, partial curve]	–
COc1ccc2[nH]c3c(N4CCN(Cc5ccc6c(c5)OCO6)CC4)ncnc3c2c1	inconclusive: 20 µM [inhibitor, partial curve, poor fit]	–

Structure (SMILES)	Potency	activity change, negative = inhibition
O=C(O)CCc1ccc(-c2ccc(Cl)cc2)n1CC(=O)O	active: 50.1 µM	–
O=C1C(O)=C(O)C(=O)c2ccccc21	active: 31.6 µM	–
O=c1[nH]c2ccc(S(=O)(=O)N3CCN(c4ccccc4)CC3)cc2[nH]c1=O	active: 79.4 µM	–
CCOC(=O)c1ccc(N2C(=O)c3[nH]nc(-c4ccc(C)cc4)c3C2c2ccc(O)c(OCC)c2)cc1 (stereo not given)	–	inactive: -18.3%
CCOC(=O)Nc1ccc2c(CN3C(=O)NC(CC)(CC)C3=O)cc(=O)oc2c1	inconclusive: 35.5 µM [inhibitor, single point]	–
O=C1CC(Cc2ccccc2)C(=O)N1Cc1ccco1 (stereo not given)	inconclusive: 14.1 µM [inhibitor, full curve, poor fit]	–
COc1ccccc1NC(=O)CSc1nccc(-c2ccco2)n1	inconclusive: 89.1 µM [inhibitor, partial curve, poor fit]	–
Cc1ccc(-n2c(=S)[nH]c3sc4c(c3c2=O)CCc2ccccc2-4)cc1	–	inactive: -11.7%
CNS(=O)(=O)c1cccc(C(=O)OCc2cc(=O)oc3c(C)c(O)ccc23)c1	inconclusive: 50.1 µM [inhibitor, partial curve]	–
O=C1/C(=C/c2cccc([N+](=O)[O-])c2)CCc2ccccc21	inconclusive: 11.2 µM [inhibitor, partial curve, poor fit]	–
COc1ccccc1NC(=O)N1CCN(Cc2ccc3c(c2)OCO3)CC1	inconclusive: 100 µM [inhibitor, partial curve, poor fit]	–
O=C(NCc1ccc(Cl)cc1)c1ccc2c(Cl)c3c(nc2c1)CCCC3	–	inactive: -19.9%
Cc1ccc2[nH]c3c(=O)n(CC(=O)NCc4ccco4)ncc3c2c1	inconclusive: 56.2 µM [inhibitor, partial curve, poor fit]	–
O=C(Nc1ccc2ccccc2c1)c1ccccc1[N+](=O)[O-]	inconclusive: 28.2 µM [inhibitor, partial curve, poor fit]	–
COc1ccc(NC(=O)CC2SC(N3CCOCC3)=NC2=O)c(OC)c1 (stereo not given)	inconclusive: 31.6 µM [inhibitor, full curve]	–
CCn1c(/C=C/c2ccc(O)c(O)c2)nc2ccccc2c1=O	active: 14.1 µM	–
CN(C)S(=O)(=O)c1cccc(NC(=S)N/N=C/c2cccc(O)c2)c1	–	inactive: 3.87%
CN(C)c1ccc(-n2cc3c(=O)n(C)c(=O)n(C)c3c2)cc1	inconclusive: 50.1 µM [inhibitor, partial curve, poor fit]	–
C=CCSC1=Nc2sccc2C2=NC(=O)CN12	inconclusive: 31.6 µM [inhibitor, partial curve, poor fit]	–
Cc1ccccc1NC(=S)NCc1ccccc1	inconclusive: 89.1 µM [inhibitor, partial curve, poor fit]	–
COCCn1c(C)cc(/C=N/NC(=O)c2cc3ccccc3cc2O)c1C	inconclusive: 39.8 µM [inhibitor, partial curve, poor fit]	–
